# From the supplement of paper PMC11369174, “Proteome-scale characterisation of motif-based interactome rewiring by disease mutations” (Molecular Systems Biology, 2024)
# The other results are listed elsewhere or left out. This is a noisy data set.
# Molecular target: T1, GGA1_VHS__Q9UJY5_1_157
# T1 chain: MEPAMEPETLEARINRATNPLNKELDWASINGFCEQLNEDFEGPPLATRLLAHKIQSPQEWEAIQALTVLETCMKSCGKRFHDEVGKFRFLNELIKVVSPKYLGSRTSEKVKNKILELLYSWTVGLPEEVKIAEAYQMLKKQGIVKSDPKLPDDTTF
# Assay: mutation enrichment score (mutant vs wild-type peptide binding to bait); baits are purified protein domains named by gene / domain / UniProt id / residues; peptides come from disordered regions of human proteins; higher = mutation enhances binding relative to wild type
# Settings: number of wild-type / mutant comparisons summed (bounds the score): 10; paper call: enhanced; wild-type window: …
row,Binder,mutation enrichment score
1,ALYFSLVAKRLHPDEDDTLVDSPAVTPVSARVPRVRPPHGF [E3632D E3632D],6
2,EDGPIVKLASNLGVEDVNLLRGEELSYPNVFLVFLNGNILG [C527R C527R],10

# Molecular target: NEDD4_WW_2_P46934_765_803
# Sequence (chain, as listed by the source): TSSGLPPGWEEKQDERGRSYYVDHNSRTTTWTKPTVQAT
# Assay: as above
# Settings: number of wild-type / mutant comparisons summed (bounds the score): 6; paper call: no_effect; wild-type window: …
row,Binder,mutation enrichment score
1,ALYFSLVAKRLHPDEDDTLVDSPAVTPVSARVPRVRPPHGF [E3632D E3632D],-6

# Molecular target: T1, GGA1_VHS__Q9UJY5_1_157
# Assay: as above
# Settings: number of wild-type / mutant comparisons summed (bounds the score): 15; paper call: enhanced; wild-type window: …
row,Binder,mutation enrichment score
1,DKELQTASIFGSAKASQEADSVLILQDRKLVTGPGKRYLQV [N585S N585S],7.5

# Molecular target: T2, GGA3_VHS__Q9NZ52_1_166
# T2 chain: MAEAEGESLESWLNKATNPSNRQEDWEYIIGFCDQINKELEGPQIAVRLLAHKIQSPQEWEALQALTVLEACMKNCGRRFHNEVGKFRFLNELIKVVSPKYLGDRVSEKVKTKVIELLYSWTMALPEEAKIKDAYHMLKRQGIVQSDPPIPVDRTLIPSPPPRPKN
# Assay: as above
# Settings: number of wild-type / mutant comparisons summed (bounds the score): 6; paper call: no_effect; wild-type window: …
row,Binder,mutation enrichment score
1,MPTVISASVAPRTAAEPRSPEPVPHPAQSKATEAGGGNPSG [G21E G21E],-1
2,KNVKVNFDNVGFGYLSLLQVDTFKGWMDIMYAAVDSRNVEL [A1429D A1429D],5
3,SGRMTFALCCYSLTFMRFAYEVQPRNWLLFACHATNEVAQL [K72E K72E],2

# Molecular target: T3, GRAP2_SH3_2_O75791_274_329
# T3 chain: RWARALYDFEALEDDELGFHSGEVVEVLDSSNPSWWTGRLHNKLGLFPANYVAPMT
# Assay: as above
# Settings: number of wild-type / mutant comparisons summed (bounds the score): 6; paper call: no_effect; wild-type window: …
row,Binder,mutation enrichment score
1,IKYNEEKRHVDQPIDYSLKYPTDIPSSQKQSFSFSKSSSGQ [A1184P A1184P],4
2,LAQQWDQLDQLGMRMQHNLEEQIQARNTTGVTEEALKEFSM [Q2310E Q2310E],-2
3,DKAPEPRPEPVRASKPAPPPEALQTLALPLTPYAQIIQSLQ [Q2233E Q2233E],5.3
4,DKAPEPRPEPVRASKPAPPPKALQTLALPLTPYAQIIQSLQ [Q2233K Q2233K],-5

# Molecular target: T4, PIK3R1_SH3_1_P27986_6_78
# T4 chain: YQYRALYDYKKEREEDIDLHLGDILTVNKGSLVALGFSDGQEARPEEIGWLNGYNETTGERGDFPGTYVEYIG
# Assay: as above
# Settings: number of wild-type / mutant comparisons summed (bounds the score): 9; paper call: no_effect; wild-type window: …
row,Binder,mutation enrichment score
1,DKAPEPRPEPVRASKPAPPPEALQTLALPLTPYAQIIQSLQ [Q2233E Q2233E],-3.4

# Same assay, conditions: number of wild-type / mutant comparisons summed (bounds the score): 9; paper call: diminished; wild-type window: …
row,Binder,mutation enrichment score
1,DKAPEPRPEPVRASKPAPPPKALQTLALPLTPYAQIIQSLQ [Q2233K Q2233K],-7

# Molecular target: T3, GRAP2_SH3_2_O75791_274_329
# Assay: as above
# Settings: number of wild-type / mutant comparisons summed (bounds the score): 18; paper call: diminished; wild-type window: …
row,Binder,mutation enrichment score
1,IQPSDCHTTVRPAKPPVVDRYLKPGALSNSESIPTIDGLRH [S236Y S236Y],-8.7

# Molecular target: Intersectin-1_SH3_2_Q15811_913_971
# Assay: as above
# Settings: number of wild-type / mutant comparisons summed (bounds the score): 12; paper call: no_effect; wild-type window: …
row,Binder,mutation enrichment score
1,IQPSDCHTTVRPAKPPVVDRYLKPGALSNSESIPTIDGLRH [S236Y S236Y],-2
2,IQPSDCHTTVRPAKPPVVDRFLKPGALSNSESIPTIDGLRH [S236F S236F],-0.42

# Molecular target: T3, GRAP2_SH3_2_O75791_274_329
# Assay: as above
# Settings: number of wild-type / mutant comparisons summed (bounds the score): 18; paper call: no_effect; wild-type window: …
row,Binder,mutation enrichment score
1,IQPSDCHTTVRPAKPPVVDRFLKPGALSNSESIPTIDGLRH [S236F S236F],-1.1

# Molecular target: T5, IRS2_PTB__Q9Y4H2_188_304
# T5 chain: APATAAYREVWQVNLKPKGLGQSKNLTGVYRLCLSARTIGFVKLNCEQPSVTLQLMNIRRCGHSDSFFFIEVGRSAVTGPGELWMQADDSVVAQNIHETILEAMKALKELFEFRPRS
# Assay: as above
# Settings: number of wild-type / mutant comparisons summed (bounds the score): 6; paper call: no_effect; wild-type window: …
row,Binder,mutation enrichment score
1,NMVGPDWKKRWLYWKNRTQERCVHNETKNELEKMLKCNEEH [Q785R Q785R],-1
2,NAIENMVGPDWKKRWLYWKNWTQEQCVHNETKNELEKMLKC [R781W R781W],-1
3,DMFNFETFGNSMICLFQITTFAGWDGLLAPILNSKPPDCDP [S1723F S1723F],5
4,NDSDDSISAATNKGRGRGRGQRGGRGQNSASRGGSQRGRAD [R576Q R576Q],-1

# Molecular target: REPS1___Q96D71_226_314
# Assay: as above
# Settings: number of wild-type / mutant comparisons summed (bounds the score): 6; paper call: no_effect; wild-type window: …
row,Binder,mutation enrichment score
1,NDSDDSISAATNKGRGRGRGQRGGRGQNSASRGGSQRGRAD [R576Q R576Q],-4
2,NDSDDSISAATNKGRGRGRGGRGGRGQNSASRGGSQRGRAD [R576G R576G],-4

# Molecular target: T5, IRS2_PTB__Q9Y4H2_188_304
# Assay: as above
# Settings: number of wild-type / mutant comparisons summed (bounds the score): 12; paper call: no_effect; wild-type window: …
row,Binder,mutation enrichment score
1,NDSDDSISAATNKGRGRGRGGRGGRGQNSASRGGSQRGRAD [R576G R576G],0

# Molecular target: Intersectin-1_SH3_1_Q15811_740_806
# Assay: as above
# Settings: number of wild-type / mutant comparisons summed (bounds the score): 6; paper call: no_effect; wild-type window: …
row,Binder,mutation enrichment score
1,ERQMDDLEGAAPPIPPRLHSKDKRKTPLKVLEEWKTHLIPS [E739K E739K],-4.9

# Molecular target: Intersectin-1_SH3_3_Q15811_1002_1060
# Assay: as above
# Settings: number of wild-type / mutant comparisons summed (bounds the score): 6; paper call: no_effect; wild-type window: …
row,Binder,mutation enrichment score
1,ERQMDDLEGAAPPIPPRLHSKDKRKTPLKVLEEWKTHLIPS [E739K E739K],-4.9
2,NMRVEDYEPYPDDGMGYGDYLKLPDRSQHERDPWYSWDQPG [P76L P76L],-3
3,NMRVEDYEPYPDDGMGYGDYQKLPDRSQHERDPWYSWDQPG [P76Q P76Q],-3

# Molecular target: Intersectin-1_SH3_5_Q15811_1155_1214
# Assay: as above
# Settings: number of wild-type / mutant comparisons summed (bounds the score): 6; paper call: no_effect; wild-type window: …
row,Binder,mutation enrichment score
1,ERQMDDLEGAAPPIPPRLHSKDKRKTPLKVLEEWKTHLIPS [E739K E739K],-4.4

# Molecular target: SNX9_SH3_1_Q9Y5X1_3_61
# Sequence (chain, as listed by the source): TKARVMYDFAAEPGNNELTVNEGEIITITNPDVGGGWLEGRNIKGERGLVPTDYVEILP
# Assay: as above
# Settings: number of wild-type / mutant comparisons summed (bounds the score): 6; paper call: no_effect; wild-type window: …
row,Binder,mutation enrichment score
1,ERQMDDLEGAAPPIPPRLHSKDKRKTPLKVLEEWKTHLIPS [E739K E739K],-4.4

# Molecular target: Src_SH3__P12931_87_144
# Assay: as above
# Settings: number of wild-type / mutant comparisons summed (bounds the score): 6; paper call: no_effect; wild-type window: …
row,Binder,mutation enrichment score
1,ERQMDDLEGAAPPIPPRLHSKDKRKTPLKVLEEWKTHLIPS [E739K E739K],-4.7

# Molecular target: Intersectin-1_SH3_1_Q15811_740_806
# Assay: as above
# Settings: number of wild-type / mutant comparisons summed (bounds the score): 12; paper call: diminished; wild-type window: …
row,Binder,mutation enrichment score
1,NMRVEDYEPYPDDGMGYGDYLKLPDRSQHERDPWYSWDQPG [P76L P76L],-10
2,NMRVEDYEPYPDDGMGYGDYQKLPDRSQHERDPWYSWDQPG [P76Q P76Q],-10
